Assay results from patent US20060084145A1 (Janssen / Centocor, published 2006).

B1: sRAGE mimetibody V-C-C in IgG4 with S228P and P234A/L235A mutations (VCC-G4) (Fc fusion)
chain: AQNITARIGEPLVLKCKGAPKKPPQRLEWKLNTGRTEAWKVLSPQGGGPWDSVARVLPNGSLFLPAVGIQDEGIFRCQAMNRNGKETKSNYRVRVYQIPGKPEIVDSASELTAGVPNKVGTCVSEGSYPAGTLSWHLDGKPLVPNEKGVSVKEQTRRHPETGLFTLQSELMVTPARGGDPRPTFSCSFSPGLPRHRALRTAPIQPRVWEPVPLEEVQLVVEPEGGAVAPGGTVTLTCEVPAQPSPQIHWMKDGVPLPLPPSPVLILPEIGPQDQGTYSCVATHSSHGSGGGSGTLVTVSS[human IgG4 Fc with S228P F234A L235A (EU numbers) not given here]
notes: Complete mimetibody polypeptide; Transiently expressed in HEK293E cells
B2: sRAGE mimetibody V in IgG1 with C220A and L234A/L235A mutations (V-G1) (Fc fusion)
chain: AQNITARIGEPLVLKCKGAPKKPPQRLEWKLNTGRTEAWKVLSPQGGGPWDSVARVLPNGSLFLPAVGIQDEGIFRCQAMNRNGGTLVTVSS[human IgG1 Fc with changes not given here]
notes: Complete mimetibody polypeptide; Expressed in SP2/0 cells; also called V region containing sRAGE mimetibody
B3: sRAGE mimetibody V-C-C in IgG1 with C220A and L234A/L235A mutations (VCC-G1) (Fc fusion)
chain: AQNITARIGEPLVLKCKGAPKKPPQRLEWKLNTGRTEAWKVLSPQGGGPWDSVARVLPNGSLFLPAVGIQDEGIFRCQAMNRNGKETKSNYRVRVYQIPGKPEIVDSASELTAGVPNKVGTCVSEGSYPAGTLSWHLDGKPLVPNEKGVSVKEQTRRHPETGLFTLQSELMVTPARGGDPRPTFSCSFSPGLPRHRALRTAPIQPRVWEPVPLEEVQLVVEPEGGAVAPGGTVTLTCEVPAQPSPQIHWMKDGVPLPLPPSPVLILPEIGPQDQGTYSCVATHSSHGTLVTVSS[human IgG1 Fc with changes not given here]
notes: Complete mimetibody polypeptide (sRAGE V-C-C, J region, IgG1 hinge C220A, CH2-CH3 L234A/L235A); Expressed in SP2/0 cells, protein A purified; also called V-C-C containing sRAGE mimetibody

Columns and labels:
[1] = target: T1, Advanced Glycated Endproducts (AGE) prepared from bovine serum albumin with glycoaldehyde (bovine, UniProt P02769, glycated by incubation with 50 mM glycoaldehyde for 3 days at 37 C (modified residues not stated); 125-I labeled in Example 3); experiment: solid phase ELISA, AGE coated on plate, anti-human Fc detection
T1 construct: Chemically modified protein; a heterogeneous product; also called AGEs

[2] = target: T1, Advanced Glycated Endproducts (AGE) …; experiment: solid phase ELISA, plate coated with AGE, detection with HRP anti-human Fc

T1 sequence (P02769 25-607 limits assumed): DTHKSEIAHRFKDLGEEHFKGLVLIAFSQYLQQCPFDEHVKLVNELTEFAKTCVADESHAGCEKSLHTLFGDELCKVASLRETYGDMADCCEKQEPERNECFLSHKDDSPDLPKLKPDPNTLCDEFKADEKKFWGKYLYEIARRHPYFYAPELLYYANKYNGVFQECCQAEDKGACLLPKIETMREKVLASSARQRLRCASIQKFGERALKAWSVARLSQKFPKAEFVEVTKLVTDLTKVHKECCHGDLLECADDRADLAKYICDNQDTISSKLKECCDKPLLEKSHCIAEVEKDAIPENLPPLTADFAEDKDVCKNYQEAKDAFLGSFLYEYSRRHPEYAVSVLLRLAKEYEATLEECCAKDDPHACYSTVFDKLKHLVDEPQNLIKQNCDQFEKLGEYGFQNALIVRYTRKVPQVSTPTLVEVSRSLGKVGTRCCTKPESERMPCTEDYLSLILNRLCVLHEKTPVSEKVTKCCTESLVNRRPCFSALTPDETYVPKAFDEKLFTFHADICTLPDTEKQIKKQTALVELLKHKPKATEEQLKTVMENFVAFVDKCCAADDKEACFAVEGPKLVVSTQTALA

| Binder | Kd [1] | EC50 (read off the curve) [2] |
| --- | --- | --- |
| B1 | 0.18 µg/mL | ~0.2 µg/mL |
| B2 | 17.7 µg/mL | ~20 µg/mL |
| B3 | 0.62 µg/mL | ~0.7 µg/mL |
